Laboratory results reported in the BET-seq Pho4 binding data (Le et al. 2018).
Some of the results follow. The energies were worked out here from pooled read counts, against the library average; single values are noisy.

What follows are sequences tested against T1, Pho4 (S. cerevisiae) (UniProt P07270) (assay: relative binding free energy (BET-seq); higher = weaker binding). Conditions: reference: library average.
T1 sequence: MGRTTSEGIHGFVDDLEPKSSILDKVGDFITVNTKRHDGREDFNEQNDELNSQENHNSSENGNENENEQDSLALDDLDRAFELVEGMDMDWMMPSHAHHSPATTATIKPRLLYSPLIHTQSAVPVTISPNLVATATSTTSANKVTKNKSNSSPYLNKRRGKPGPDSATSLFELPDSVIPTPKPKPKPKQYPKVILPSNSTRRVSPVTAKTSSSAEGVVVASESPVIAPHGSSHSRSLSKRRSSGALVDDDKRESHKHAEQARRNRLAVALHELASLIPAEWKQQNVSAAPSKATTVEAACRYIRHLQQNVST

| Sequence | relative binding free energy [kcal/mol] |
| --- | --- |
| ATGATCACGTGGGTTA | 0.01 |
| ATGGACACGTGGGCTG | 0 |
| ATTTGCACGTGGTGAT | 0.06 |
| GGTCGCACGTGGGAGT | -0.17 |
| TGGGGCACGTGGCTGA | -0.12 |
| AGTATCACGTGGGATG | 0.04 |
| AGGTGCACGTGATCTT | 0.01 |
| TTTGTCACGTGGGACA | -0.04 |
| TCATACACGTGTAGTG | 0.06 |
| GCTCGCACGTGTGTTG | 0.08 |
| TTGCTCACGTGTTGTA | 0.23 |
| ATGGGCACGTGGCGGT | -0.24 |
| AGCTGCACGTGCGTTG | -0.09 |
| TGTGGCACGTGGTAGA | -0.28 |
| GGGTACACGTGGTCGT | 0.07 |
| GATAGCACGTGGTCTT | -0.02 |
| TTTAGCACGTGTAAAG | 0.11 |
| ATGTTCACGTGGCTGT | 0.2 |
| TTTAACACGTGTAATA | -0.02 |
| TATATCACGTGTTCGT | 0.16 |
| AATATCACGTGGAGGG | -0.01 |

| Sequence | relative binding free energy [kcal/mol] |
| --- | --- |
| GTGTCCACGTGGGTCT | -0.12 |
| TTATACACGTGAGTAT | 0.28 |
| TGTCGCACGTGCGGAT | -0.02 |
| TCTAGCACGTGAGTGA | 0.12 |
| GGAAACACGTGTGTGA | 0 |
| GGATGCACGTGTATTC | 0.13 |
| GTATGCACGTGGTCGC | -0.05 |
| GGGGGCACGTGTAACT | 0.12 |
| TGAGGCACGTGACTGG | 0.03 |
| GTGGGCACGTGAAATG | 0.1 |
| CTAGGCACGTGTATAT | -0.15 |
| AGGCTCACGTGTATTT | 0.17 |
| CTGAGCACGTGGGTGT | -0.29 |
| GGTTCCACGTGGGGCT | -0.12 |
| GGCGGCACGTGGTGCG | -0.16 |
| CATGGCACGTGGGCAG | -0.18 |
| GTCTACACGTGTGTTG | 0.14 |
| CGTCACACGTGAGGGG | 0.31 |
| AGTGGCACGTGTACGG | -0.1 |
| TTCATCACGTGGGGGG | 0.14 |
| TATTTCACGTGTATGT | 0.25 |

| Sequence | relative binding free energy [kcal/mol] |
| --- | --- |
| AAATACACGTGGGGTG | -0.07 |
| TGCAGCACGTGGGGTG | -0.24 |
| GCAGGCACGTGGAGTA | -0.11 |
| AGAGACACGTGAGTGG | 0.16 |
| ACGATCACGTGAGTGG | 0.21 |
| GAAATCACGTGTATTT | 0.21 |
| GGCATCACGTGATTTG | 0.35 |
| AATAGCACGTGCATGG | -0.1 |
| CGATGCACGTGGGGTG | -0.2 |
| TTTCGCACGTGTTGGT | 0.02 |
| TTACGCACGTGGATTT | 0.09 |
| GGTACCACGTGTGGAG | 0.09 |
| ATGATCACGTGAGTGT | 0.12 |
| TGGTTCACGTGGGGAT | 0.25 |
| ATCTGCACGTGGTATT | -0.04 |
| CGCGTCACGTGTGGGT | -0.04 |
| CTCGCCACGTGTGGGT | -0.02 |
| ATTCGCACGTGGGTTG | -0.25 |
| GATGGCACGTGCGGGA | -0.08 |
| AATCTCACGTGTTTTT | 0.13 |
| TGGTCCACGTGCGGGG | -0.05 |
